In PubChem BioAssay AID651820 (National Center for Advancing Translational Sciences (NCATS), 2012):
Hit rate of the full screen: of about 340,000 compounds, about 12,000 (3.5%) were called active. Inconclusive results, whose numbers are uncertain, are shown with a selection of clear calls. Calls come from the whole dose curve; as a rule, active = well fitted inhibition curve with a large enough effect; inconclusive = small, poorly fitted or top-dose-only effect, or another doubt; inactive = no such curve, though single readings can be large or run the other way. No potency is given beside an inconclusive call; the fits are too rough.

assay: qHTS Assay for Inhibitors of Hepatitis C Virus (HCV); details: Huh7.5.1 HCVcc-Cre (HCVcc is cell-culture hepatitis C virus) infection, luciferase reporter, 44 h; series mostly up to 41.8 µM
Summary of the method: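 Cells (1,000/well) were plated 4 h before compound, then infected with HCVcc-Cre virus (~0.5 moi). After 44 h further culture, infection was read as luciferase luminescence following a 15 min substrate incubation at room temperature.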
Potency is the fitted concentration of half-maximal effect; tags give direction and shape of the fitted curve.

SMILES | Potency
O=c1c2c(-c3ccccc3)csc2ncn1/N=C/c1cccc([N+](=O)[O-])c1O | inactive
c1ccc2c(Nc3nc4c(s3)CCCC4)cccc2c1 | inconclusive [inhibitor, single point]
CN(C)CCCNCC(=O)Nc1ccc(Cl)cc1C(=O)c1ccccc1 | inconclusive [inhibitor, partial curve]
COc1cc(NC(=O)COc2ccc(Br)cc2)ccc1NC(=O)C(C)C | inconclusive [inhibitor, partial curve]
O=[N+]([O-])/C=C/c1cc2ccccc2[nH]1 | inactive
Cc1ccc(NCc2nc3ccccc3n2C)cc1C | inactive
COc1ccc(CCNC(=O)CCC2COc3ccccc3O2)cc1OC (stereo not given) | inconclusive [inhibitor, single point]
Cc1ccc(S(=O)(=O)NCc2ccccc2)cc1C(=O)NCC(C)(C)N1CCOCC1 | inconclusive [inhibitor, single point]
CCCc1cc(C(=O)N(C)CC(=O)Nc2ccc(OCC)c(OCC)c2)sc1C | inconclusive [inhibitor, partial curve]
CC(C)(C)c1cc(C(=O)N2CCc3ccccc3C2)ccn1 | inactive
COc1ccccc1CNC(=O)c1c(-c2ccccc2)nn(-c2ccccc2)c1C | inconclusive [inhibitor, partial curve]
O=C(COc1ccccc1)Nc1ccc(S(=O)(=O)N2CCCCCC2)cc1 | inactive
CCCCn1c(SCC(=O)NCc2ccco2)nc2ccc(N3CCOCC3)cc2c1=O | inconclusive [inhibitor, single point]
Cc1cc(C)c(C#N)c(SCc2ccccc2C)n1 | inconclusive [inhibitor, single point]
COc1cc(C(=O)NCC2(N3CCCCC3)CCCCC2)ccc1OCC(=O)N1CCOCC1 | inactive
O=C(OCC(=O)c1ccccc1Br)c1ccccn1 | inactive
O=C(C1=C[C@H](C2CCCCC2)C[C@H](OCc2ccc(CO)cc2)O1)N1CCN(Cc2ccccc2)CC1 | inactive
O=C(Nc1ccccc1Cl)c1ccccc1Oc1ccc(C(F)(F)F)cc1[N+](=O)[O-] | inconclusive [inhibitor, single point]
CCOC(=O)C1CCN(S(=O)(=O)c2ccc(NC(=O)c3ccco3)cc2)CC1 | inconclusive [inhibitor, full curve, poor fit]
Cc1nn2cc(-c3ccc(Cl)cc3)nc2s1 | inactive
Cc1c(Br)c([N+](=O)[O-])nn1CC(=O)Nc1ccc(Cc2ccncc2)cc1 | inconclusive [inhibitor, single point]
Cc1ccc(NC(=O)Cn2cnc3c(OCc4ccccc4)ncnc32)cc1C | inactive
CC(=O)c1c(C)[nH]c(C(=O)OCCCCN2C(=O)c3ccccc3C2=O)c1C | active: 10 µM
COc1ccc(-c2c(C)nn3c(N4CCC5(CC4)OCCO5)cc(C)nc23)cc1OC | inconclusive [inhibitor, full curve, poor fit]
CCCc1cc(C(=O)NCc2ccccc2)no1 | inactive

SMILES | Potency
CC(c1ccon1)N(C)Cc1cn(C)nc1-c1cccc(Cl)c1 (stereo not given) | inactive
COc1ccc(Br)cc1/C=C/C(=O)Nc1ccc(C)cc1 | inconclusive [inhibitor, full curve]
Cn1cccc1CC(=O)N/N=C\c1c2ccccc2cc2ccccc12 | inconclusive [inhibitor, partial curve]
Cc1ccc(C(=O)Nc2cc([N+](=O)[O-])ccc2F)s1 | inactive
CCOc1ccc(CCNc2cc(C)nc3ncnn23)cc1OCC | inconclusive [inhibitor, single point]
CCc1ccccc1N(C)C(=O)CCc1nc(-c2ccc(C)cc2)no1 | inconclusive [inhibitor, partial curve]
COc1ccccc1C1C2=C(COC2=O)Nc2cc3c(cc21)OCO3 (stereo not given) | inconclusive [inhibitor, single point]
CCc1ccc(/C=C/C(=O)C2C(=O)c3ccccc3C2=O)cc1 | inconclusive [inhibitor, full curve, poor fit]
CCOc1ccc(C2C(C#N)=C(N)Oc3cc(C)n(CCN4CCOCC4)c(=O)c32)cc1OCC (stereo not given) | inconclusive [inhibitor, single point]
COc1ccc(-c2csc3ncn(-c4ccc(C)cc4)c(=O)c23)cc1OC | inconclusive [inhibitor, partial curve]
COc1ccc(N(C(=O)c2snc(C(N)=O)c2N)C(C(=O)NCc2ccc(F)cc2)c2ccc(C)o2)c(OC)c1 (stereo not given) | inconclusive [inhibitor, single point]
CC(C)Cn1c(SCC(=O)Nc2ccc(Cl)cc2F)nc(O)cc1=O | inactive
O=C(NCc1cccnc1)c1cc(Sc2ccc(F)cc2F)nc2ccccc12 | active: 10 µM
CC(=O)c1sc2nc(C)c3c(c2c1N)CCCC3 | inactive
COc1ccccc1C(=O)Nc1ccc(NC(=O)c2ccco2)cn1 | inconclusive [inhibitor, single point]
O=C(NC(=S)NCc1ccccc1)c1cccc([N+](=O)[O-])c1 | inactive
Cc1cccc(Nc2ccc(C(=O)N3CCOCC3)cn2)c1 | inactive
Cc1ccc(S(=O)(=O)NC23CC4CC(CC(C4)C2)C3)cc1 | inconclusive [inhibitor, single point]
Cc1ccc(-n2nc(C(N)=O)nc2-c2ccccc2)cc1 | inactive
N#CC(C(=O)Nc1cccc(Cl)c1)=C1Nc2ccccc2N1 | inconclusive [inhibitor, single point]
COC(=O)C(C)(N)Cc1ccc(O)cc1 (stereo not given) | inconclusive [inhibitor, single point]
COc1ccc(OCCCC(=O)Nc2ccc(OC)c(S(=O)(=O)N3CCOCC3)c2)cc1 | inconclusive [inhibitor, partial curve]
C1=C(c2sc3ccccc3c2-c2ccc(OCCN3CCOCC3)cc2)CCCC1 | inconclusive [inhibitor, single point]
Cc1ccc(C)c(N2CCN(C(=O)Nc3ccc4c(c3)N(C)C(=O)CS4)CC2)c1 | active: 10 µM
S=c1[nH]c2cnc(Cl)nc2[nH]1 | inactive

SMILES | Potency
COCc1nc(-c2cc(Br)ccc2OC)no1 | active: 12.6 µM
C=CCn1c(C)cc(C(=O)COC(=O)/C=C/c2ccc(OC)cc2)c1C | inconclusive [inhibitor, partial curve]
O=C(Cn1cnc2ccccc2c1=O)c1cccs1 | inconclusive [inhibitor, single point]
COC(=O)C1CCCN1C(=O)c1cccs1 (stereo not given) | inconclusive [inhibitor, single point]
CCC1COCCS(=O)(=O)N1Cc1cccc(C(F)(F)F)c1 (stereo not given) | inactive
Cc1ccc(-n2nc3c(c2NC(=O)c2ccc(S(=O)(=O)N4CCOCC4)cc2)CSC3)c(C)c1 | inconclusive [inhibitor, full curve, poor fit]
Oc1c(C(c2ccccn2)N2CCC(Cc3ccccc3)CC2)cc(Cl)c2cccnc12 (stereo not given) | active: 17.8 µM
CCOc1ccc(C(=O)Nc2cccc(-n3cnnn3)c2)cc1OCC | inconclusive [inhibitor, partial curve]
CCOC(=O)C1OC1(c1ccccc1)c1ccccc1 (stereo not given) | inactive
CC(C)Cn1c(SCC(=O)N2CCCCC2)nc2ccccc2c1=O | inconclusive [inhibitor, partial curve]
O=C(NCc1ccccc1)c1c[nH]c2ccc(F)cc2c1=O | inactive
Cc1ccc(C2=NN(C(=O)CCC(=O)O)C(c3cccs3)C2)cc1 (stereo not given) | inactive
COC(=O)c1cc(COC(=O)c2ccc(OC)c(S(=O)(=O)N3CCCC3)c2)oc1C | active: 15.8 µM
CCN=C1S/C(=C\c2cn(C(C)=O)nc2-c2ccccc2)C(=O)N1CC | active: 10 µM
COc1cc2c(cc1NC(=O)c1ccccc1F)CCCC2 | inconclusive [inhibitor, full curve]
CCCCNC(=O)c1onc(CCl)c1C(=O)OC | inactive
COc1ccc(N2CCN(C(=O)CSc3nc4[nH]ncc4c(=O)n3-c3ccc(Br)cc3)CC2)cc1 | inconclusive [inhibitor, single point]
COc1cc(CNn2c(C)n[nH]c2=S)cc(Cl)c1OCc1ccccc1 | inactive
COc1ccc(OC)c(C(=O)NC(CC(N)=O)c2ccc(NC(C)C)c([N+](=O)[O-])c2)c1 (stereo not given) | inactive
Cc1ccc(NC(=O)c2c3c(nc4ccccc24)CCC3)cc1 | inactive
Cc1ccc(NC(=O)C2CCN(S(=O)(=O)c3ccc(F)cc3)CC2)cc1 | inconclusive [inhibitor, single point]
O=S(=O)(Nc1cccc(-c2ccc(N3CCCCCC3)nn2)c1)c1ccc(F)cc1 | inconclusive [inhibitor, single point]
CCN(CC)C(=O)Cn1cc(C(=O)C(=O)Nc2ccc3c(c2)OCCO3)c2ccccc21 | inconclusive [inhibitor, partial curve]
O=C(NCCCn1ccnc1)c1ccc(NS(=O)(=O)c2ccc(Cl)c(Cl)c2)cc1 | inconclusive [inhibitor, single point]
CCOC(=O)c1cnc(SC)nc1Oc1cccc(NS(=O)(=O)c2ccc(C)cc2)c1 | inconclusive [inhibitor, single point]
